# Measurements: the supplement of paper PMC8728848
# The list shows a part of the results.
# Assays:
# Assay in all cases: glycan array binding signal (z-score within array); higher = stronger binding
# Details in all cases: glycan notation: IUPAC condensed, linker removed
# [1] = target: Fuc(a1-2)Gal
# In short: (§1)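 Glycan array data were curated from 3228 arrays in the Consortium for Functional Glycomics database and kept only where the protein sequence was available. Glycan names were converted to IUPAC-condensed notation, and columns mapping to the same glycan were averaged. The binding signal is a within-array Z-score, averaged across arrays of the same protein sequence at different concentrations or buffers and across linkers. Negative Z-scores can be read as non-binding.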
# [2] = target: Fuc(a1-2)Gal(b1-3)GalNAc
# In short: as §1
# [3] = target: Fuc(a1-2)Gal(b1-3)GalNAc(b1-3)Gal
# In short: as §1
# [4] = target: Fuc(a1-2)Gal(b1-3)GalNAc(b1-3)Gal(a1-4)Gal(b1-4)Glc
# In short: as §1
# [5] = target: Fuc(a1-2)Gal(b1-3)GalNAc(b1-4)[Neu5Ac(a2-3)]Gal(b1-4)Glc
# In short: as §1
# [6] = target: Fuc(a1-2)Gal(b1-3)GlcNAc
# In short: as §1
# [7] = target: Fuc(a1-2)Gal(b1-3)GlcNAc(b1-3)Gal(b1-4)Glc
# In short: as §1
# [8] = target: Fuc(a1-2)Gal(b1-3)[Fuc(a1-4)]GlcNAc
# In short: as §1
# [9] = target: Fuc(a1-2)Gal(b1-4)Glc
# In short: as §1
# [10] = target: Fuc(a1-2)Gal(b1-4)GlcNAc
# In short: as §1
# [11] = target: Fuc(a1-2)Gal(b1-4)GlcNAc(b1-3)Gal(b1-4)GlcNAc
# In short: as §1
# [12] = target: Fuc(a1-2)Gal(b1-4)GlcNAc(b1-3)Gal(b1-4)GlcNAc(b1-3)Gal(b1-4)GlcNAc
# In short: as §1
# [13] = target: Fuc(a1-2)Gal(b1-4)[Fuc(a1-3)]GlcNAc
# In short: as §1
# [14] = target: Fuc(a1-2)Gal(b1-4)[Fuc(a1-3)]GlcNAc(b1-3)Gal(b1-4)[Fuc(a1-3)]GlcNAc
# In short: as §1
# [15] = target: Fuc(a1-2)Gal(b1-4)[Fuc(a1-3)]GlcNAc(b1-3)Gal(b1-4)[Fuc(a1-3)]GlcNAc(b1-3)Gal(b1-4)[Fuc(a1-3)]GlcNAc
# In short: as §1
# [16] = target: Fuc(a1-2)GlcNAc
# In short: as §1
# [17] = target: Fuc(a1-2)[Gal(a1-3)]Gal
# In short: as §1
# [18] = target: Fuc(a1-2)[Gal(a1-3)]Gal(b1-3)GlcNAc
# In short: as §1
# [19] = target: Fuc(a1-2)[Gal(a1-3)]Gal(b1-4)Glc
# In short: as §1
# [20] = target: Fuc(a1-2)[Gal(a1-3)]Gal(b1-4)GlcNAc
# In short: as §1
# [21] = target: Fuc(a1-2)[Gal(a1-3)]Gal(b1-4)[Fuc(a1-3)]GlcNAc
# In short: as §1
# [22] = target: Fuc(a1-2)[Gal(a1-4)]Gal(b1-4)GlcNAc
# In short: as §1
# [23] = target: Fuc(a1-2)[GalNAc(a1-3)]Gal
# In short: as §1
# [24] = target: Fuc(a1-2)[GalNAc(a1-3)]Gal(b1-3)GlcNAc
# In short: as §1
# [25] = target: Fuc(a1-2)[GalNAc(a1-3)]Gal(b1-4)Glc
# In short: as §1
# [26] = target: Fuc(a1-2)[GalNAc(a1-3)]Gal(b1-4)GlcNAc
# In short: as §1
# [27] = target: Fuc(a1-2)[GalNAc(a1-3)]Gal(b1-4)[Fuc(a1-3)]GlcNAc
# In short: as §1
# [28] = target: Fuc(a1-2)[GalNAc(a1-4)]Gal(b1-4)GlcNAc
# In short: as §1
# [29] = target: Fuc(a1-2)[GalNAc(b1-3)]Gal
# In short: as §1
# [30] = target: Fuc(a1-3)GlcNAc
# In short: as §1
# [31] = target: Fuc(a1-3)[Gal(b1-4)]GlcNAc
# In short: as §1
# [32] = target: Fuc(a1-3)[Gal(b1-4)]GlcNAc(b1-4)Gal(b1-4)[Fuc(a1-3)]GlcNAc
# In short: as §1
# [33] = target: Fuc(a1-3)[Gal(b1-4)]GlcNAc(b1-4)Gal(b1-4)[Fuc(a1-3)]GlcNAc(b1-4)Gal(b1-4)[Fuc(a1-3)]GlcNAc
# In short: as §1
# [34] = target: Fuc(a1-3)[Gal3S(b1-4)]GlcNAc
# In short: as §1
# [35] = target: Fuc(a1-3)[GalNAc(b1-4)]GlcNAc
# In short: as §1
# [36] = target: Fuc(a1-4)GlcNAc
# In short: as §1
# [37] = target: Fuc(b1-3)GlcNAc
# In short: as §1
# [38] = target: Gal(a1-2)Gal
# In short: as §1
# [39] = target: Gal(a1-3)Gal
# In short: as §1
# [40] = target: Gal(a1-3)Gal(b1-3)GlcNAc
# In short: as §1
# [41] = target: Gal(a1-3)Gal(b1-4)Glc
# In short: as §1
# [42] = target: Gal(a1-3)Gal(b1-4)GlcNAc
# In short: as §1
# [43] = target: Gal(a1-3)Gal(b1-4)[Fuc(a1-3)]GlcNAc
# In short: as §1
# [44] = target: Gal(a1-3)GalNAc
# In short: as §1
# [45] = target: Gal(a1-3)[Gal(a1-4)]Gal(b1-4)GlcNAc
# In short: as §1
binder,measurement,setting,value
CLL-1 (Homo sapiens) (protein) MWIDFFTYSSMSEEVTYADLQFQNSSEMEKIPEIGKFGEKAPPAPSHVWRPAALFLTLLCLLLLIGLGVLASMFHVTLKIEMKKMNKLQNISEELQRNISLQLMSNMNISNKIRNLSTTLQTIATKLCRELYSKEQEHKCKPCPRRWIWHKDSCYFLSDDVQTWQESKMACAAQNASLLKINNKNALEFIKSQSRSYDYWLGLSPEEDSTRGMRVDNIINSSAWVIRNAPDLNNMYCGYINRLYVQYYHCTYKKRMICEKMANPVQLGSTYFREA,glycan array binding signal (z-score),[1],-0.173
same,glycan array binding signal (z-score),[2],-0.191
same,glycan array binding signal (z-score),[3],0.132
same,glycan array binding signal (z-score),[4],-0.1
same,glycan array binding signal (z-score),[5],-0.192
same,glycan array binding signal (z-score),[6],-0.112
same,glycan array binding signal (z-score),[7],-0.19
same,glycan array binding signal (z-score),[8],-0.204
same,glycan array binding signal (z-score),[9],-0.193
same,glycan array binding signal (z-score),[10],-0.23
same,glycan array binding signal (z-score),[11],-0.121
same,glycan array binding signal (z-score),[12],-0.214
same,glycan array binding signal (z-score),[13],-0.166
same,glycan array binding signal (z-score),[14],-0.165
same,glycan array binding signal (z-score),[15],-0.07
same,glycan array binding signal (z-score),[16],-0.215
same,glycan array binding signal (z-score),[17],-0.225
same,glycan array binding signal (z-score),[18],-0.163
same,glycan array binding signal (z-score),[19],-0.234
same,glycan array binding signal (z-score),[20],-0.176
same,glycan array binding signal (z-score),[21],-0.12
same,glycan array binding signal (z-score),[22],-0.135
same,glycan array binding signal (z-score),[23],-0.099
same,glycan array binding signal (z-score),[24],-0.095
same,glycan array binding signal (z-score),[25],-0.065
same,glycan array binding signal (z-score),[26],-0.201
same,glycan array binding signal (z-score),[27],-0.164
same,glycan array binding signal (z-score),[28],-0.194
same,glycan array binding signal (z-score),[29],-0.222
same,glycan array binding signal (z-score),[30],-0.245
same,glycan array binding signal (z-score),[31],-0.14
same,glycan array binding signal (z-score),[32],-0.182
same,glycan array binding signal (z-score),[33],-0.169
same,glycan array binding signal (z-score),[34],-0.143
same,glycan array binding signal (z-score),[35],-0.276
same,glycan array binding signal (z-score),[36],-0.169
same,glycan array binding signal (z-score),[37],-0.181
same,glycan array binding signal (z-score),[38],-0.276
same,glycan array binding signal (z-score),[39],-0.149
same,glycan array binding signal (z-score),[40],-0.136
same,glycan array binding signal (z-score),[41],-0.278
same,glycan array binding signal (z-score),[42],-0.149
same,glycan array binding signal (z-score),[43],-0.193
same,glycan array binding signal (z-score),[44],-0.123
same,glycan array binding signal (z-score),[45],-0.247
